This note sets out measurements from PubChem BioAssay AID1671189 (National Center for Advancing Translational Sciences (NCATS), 2021).

Molecules are shown by their SMILES. Among all 1,100 compounds or so, about 70 (6%) were called active. About 22% were inconclusive and are not listed. Calls come from the whole dose curve; as a rule, active = well fitted curve in the direction sought with a large enough effect; inconclusive = small, poorly fitted or top-dose-only effect, or another doubt; inactive = no such curve, though single readings can be large or run the other way. The list shows a part of the results.
% is set by controls: 0 for no effect and ±100 for the full control effect; potency is the fitted concentration of half-maximal effect.

In the experiment the target is Polyunsaturated fatty acid lipoxygenase ALOX12 (Homo sapiens) (UniProt P18054). Briefly: Confirmatory qHTS assay for inhibitors of human arachidonate 12S-lipoxygenase (ALOX12): Round 2. Conditions: purified human 12-LOX, xylenol orange absorbance; series mostly up to 125 µM; activity change, negative = inhibition: at the top concentration. The source says: Assay Provider: Theodore R. Holman Ph.D. University of California, Santa Cruz, California Human lipoxygenase 12hLO is a member of the closely related lipoxygenase family of enzymes which catalyze the site-specific oxidation of arachidonic acid to various hormone precursor molecules and as such is a candidate for drug development in a variety of disease areas, such as cancer and inflammation. Inhibition of 12hLO activity was screened by utilizing arachidonic acid as a substrate. The extent of hydroperoxide product formation was measured by a secondary chromogenic reaction in which xylenol orange (XO, Sigma-Aldrich, cat. number 39,818-7) reacts with the ferric ions produced from the reaction between the hydroperoxide and ferrous ions. The Fe (III)-XO complex is characterized with red-shifted absorbance at 560 nm. A purified preparation of human 12hLO was supplied by Dr. Holman laboratory, University of California, Santa Cruz.
Chain of UniProt P18054 (P18054 whole entry, looked up): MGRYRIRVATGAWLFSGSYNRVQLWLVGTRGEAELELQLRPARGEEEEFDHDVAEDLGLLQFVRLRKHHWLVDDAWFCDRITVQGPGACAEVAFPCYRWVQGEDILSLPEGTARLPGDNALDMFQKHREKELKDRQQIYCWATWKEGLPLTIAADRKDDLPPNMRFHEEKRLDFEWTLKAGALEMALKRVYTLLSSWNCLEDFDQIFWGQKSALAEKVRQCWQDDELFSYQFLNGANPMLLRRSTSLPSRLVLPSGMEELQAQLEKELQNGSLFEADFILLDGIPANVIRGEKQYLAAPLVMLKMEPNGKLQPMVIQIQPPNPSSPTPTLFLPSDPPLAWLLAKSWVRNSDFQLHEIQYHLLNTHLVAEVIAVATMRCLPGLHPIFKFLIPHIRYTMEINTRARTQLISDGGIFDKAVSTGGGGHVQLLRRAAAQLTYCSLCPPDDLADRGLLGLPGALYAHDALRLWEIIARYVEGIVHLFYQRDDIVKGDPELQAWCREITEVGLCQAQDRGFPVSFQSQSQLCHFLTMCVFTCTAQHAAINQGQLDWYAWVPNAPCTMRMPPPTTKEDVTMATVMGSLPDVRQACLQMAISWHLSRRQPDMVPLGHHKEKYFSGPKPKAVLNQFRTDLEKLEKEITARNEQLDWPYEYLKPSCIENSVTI
PROTOCOL TABLE SEQUENCE No. (e.g., 1, 2, 3, etc.); […] (e.g., Cells, Incubation, Reagent, etc.); VALUE; DESCRIPTION 1; Enzyme; 3 uL; 150 nM 12hLO enzyme solution dispensed in 1536-well Greiner black, clear bottom plates. 2; Compound; 23 nL; compounds and controls were added. 3; Incubate; 15 min; room temperature. 4; Substrate; 1 uL; 40 uM arachidonic acid (final concentration). 5; Incubate; 30 min; room temperature. 6; Reagent; 4 uL; Fe-XO solution was added to each well. 7; Incubation; 30 min; room temperature 8; Detector; absorbance; Read 1 at 405 nm absorbance using ViewLux (PerkinElmer) CCD imager. 9; Detector; absorbance; Read 2 at 573 nm absorbance using ViewLux (PerkinElmer) CCD imager. NOTES (numbers refer to sequence above) 1; 150 nM 12hLO (final concentration) in buffer solution (25 mM Hepes, 0.01% Triton X-100, pH 7.0) was dispensed in columns 1, 2, 5-48. Column 1 is neutral (100% activity). Buffer only was dispensed in columns 3 and 4 as no enzyme negative controls. The plates were covered with metal lids with gas-exchange holes. 2; Compounds were pin transferred via a Kalypsys Pin Tool (Wako USA) in column 5 - 48. Control compound was transferred in column 2, titration of nordihydroguaiaretic acid (NDGA, Sigma-Aldrich, N5023) with top concentration of 20 mM in DMSO then 1:3 dilution in duplicate. Dilution factor of 23 nL into 4 uL final assay volume. 3; Covered assay plates were incubated for 15 min at room temperature. 4; Substrate was added to start the reaction; 40 uM arachidonic acid (Sigma-Aldrich, St. Louis, MO) was dispensed throughout the plate. 6; Chromogenic detection reagent solution (divalent iron/xylenol orange, Fe-XO) was added to each well: 200 uM xylenol orange, 300 uM ferrous ammonium sulfate prepared freshly in 50 mM sulfuric acid. 8, 9; Two absorbance readouts were obtained at 405 nm and at 573 nm using a ViewLux high-throughput CCD plate imager (PerkinElmer). The 573 to 405 (Read 2 / Read 1) absorbance ratio was used to compute reaction progress.
A general note: qHTS replaces the single test concentration by a dilution series.
Take `N#Cc1cc2nc(O)c(O)nc2cc1[N+](=O)[O-]`: the “activity change, negative = inhibition” value was inactive: -5.48%.
For `COc1ccc(N2CC3CCC(C2)N3C(=O)c2ccc3c(c2)OCO3)cc1`, the “activity change, negative = inhibition” value was inactive: -19.9%.
For the molecule `CN1CC(=O)N(C2CCNC2)Cc2c1ncnc2N1CCC(N)CC1` (stereo not given), the “activity change, negative = inhibition” value is inactive: -5.34%.
The same measure, in the same setting: then `O=C(c1ccccc1)N1Cc2ccccc2CC2(CCN(CC3CCNC3)C2)C1` (stereo not given), with inactive: -11.4%; and `O=C(O)CCC(=O)N1Cc2ccccc2CC2(CCCN2Cc2cccnc2)C1` (stereo not given), with inactive: -6.82%; and `COc1cccc(N2C(=O)NC(=NC3CCCCC3)C23CCCN([S+](=O)([O-])c2cccs2)C3)c1` (stereo not given), with inactive: -25.9%.
Turning to `CC(C)OCCCNc1ncnc2c1CN(C1CCNC1)C(=O)CN2C` (stereo not given), the “activity change, negative = inhibition” value is inactive: -16.7%.
As for `COCc1nc(NCCCN2CCOCC2)cc(C2CC(N)C2)n1` (stereo not given), the “activity change, negative = inhibition” value is inactive: -4.73% [at 64.5 µM].
For `CCCC(=O)N1Cc2ccccc2CC2(CCN(Cc3ccc(O)cc3)C2)C1` (stereo not given), the “activity change, negative = inhibition” value is inactive: -12.5%.
On to `CC(C)NC(=O)N1CCCC1c1nnc2n1CCNC2` (stereo not given), for which the “activity change, negative = inhibition” value was inactive: -22.2%.
Turning to `CC(=O)Nc1ccc(C(=O)N2C3CCC2CN(C(C)C)C3)cc1`, the “activity change, negative = inhibition” value is inactive: -3.98%.
The same measure, in the same setting: under `NCc1ccc(-c2ccccn2)cc1` stands inactive: -1.69% [at 233 µM]; under `OCC#CCSc1nnc(-c2cccc3ccccc23)o1`, inactive: -4.67% [at 64.5 µM]; under `COc1ccc(CC(=O)N2Cc3ccccc3CC3(CCN(CC4CCNC4)C3)C2)cc1` (stereo not given), inactive: -6.64%.
With `CC(C)c1ccc(CNC(=O)C2CCN(c3cc(C(F)(F)F)ncn3)CC2)cc1`, the “activity change, negative = inhibition” value is inactive: 3.84% [at 64.5 µM].
Consider `O=C1NCc2ccccc2CC12CCCN2Cc1ccc(O)cc1O` (stereo not given), for which the “activity change, negative = inhibition” value is inactive: -18.7%.
Turning to `Nc1ccc(CN2CCCC3(Cc4ccccc4CNC3=O)C2)cc1` (stereo not given), the “activity change, negative = inhibition” value was inactive: -12.3%.
On the same count and under the same terms, under `Cc1ccc(CN2CCC3(CC2)Cc2ccccc2CNC3=O)cc1C` stands inactive: -18.2%; under `CN(C)CC(=O)N1Cc2ccccc2CC2(CCCN(CC3CCNC3)C2)C1` (stereo not given), inactive: -3.79%.
Regarding `COc1ccccc1NC1CN(C(=O)OC(C)(C)C)C1`, the “activity change, negative = inhibition” value is inactive: -21.4%.
The same measure, in the same setting: under `COc1cccc(CCn2ccnc2-c2cc3n(n2)CCCNC3)c1OC` stands inactive: 12% [at 64.5 µM]; under `CCC(=O)N1Cc2ccccc2CC2(CCCCN2CC2CCOCC2)C1` (stereo not given), inactive: -11.8%; under `Cc1cc(C(=O)N2CCC(F)CC2)c2c(C3CCCN3)noc2n1` (stereo not given), inactive: -10.6%.
Turning to `Cn1nc(C2CCCNC2)c2c(C(=O)NCC(F)(F)F)cc(C3CC3)nc21` (stereo not given), the “activity change, negative = inhibition” value was inactive: -21.6%.
`CC(CCc1ccccc1)Nc1ncnc2c1CN(C1CCNC1)C(=O)CN2C` (stereo not given): the “activity change, negative = inhibition” value was inactive: -16.1%.
`Cc1cc(C(=O)NCc2c(C)ncc3c2CCNC3)ccc1F`: the “activity change, negative = inhibition” value was inactive: -0.721% [at 64.5 µM].
For the molecule `COc1cc(OC(F)(F)F)ccc1C(=O)NCc1nnc2n1C(C(=O)O)CC2` (stereo not given), the “activity change, negative = inhibition” value is inactive: -0.939%.
Consider `COc1cccc(N2C(=O)NC(=NC3CCCCC3)C23CCN(C(=O)c2ccccc2OC)C3)c1` (stereo not given), for which the “activity change, negative = inhibition” value was inactive: -9.12%.
With `Cc1ccc(C(=O)N2CCn3c(nnc3C3CCNCC3)C2)cc1`, the “activity change, negative = inhibition” value was inactive: -13.1%.
`CC(C)(Oc1nn(Cc2cccc(Cl)c2)c2ccccc12)C(=O)NCCCn1ccnc1`: the “activity change, negative = inhibition” value is inactive: 13.6% [at 64.5 µM].
On to `OC[C@@H]1CN(Cc2cccc3[nH]ccc23)C[C@H]1c1ccncc1`, for which the “activity change, negative = inhibition” value is inactive: -2.39% [at 64.5 µM].
Turning to `Cc1ncc([N+](=O)[O-])n1CC(C)O` (stereo not given), the “activity change, negative = inhibition” value is inactive: -17.2%.
The same measure, in the same setting: then `COC(=O)[C@@H]1Cc2nc[nH]c2CN1C(C)C`, with inactive: 5.41% [at 233 µM].
As to `O=C(c1ccncc1)N1CCN(c2ccc(Cl)nn2)C(=O)C1`, the “activity change, negative = inhibition” value was inactive: -21.2%.
Take `O=C(NCc1ccc(Cl)nc1)c1cn2c(n1)CN(C(=O)c1ccccc1)CC2`: the “activity change, negative = inhibition” value is inactive: -4.72%.
Regarding `NCC(=O)N1Cc2ccccc2CC2(CCN(CC3CCNC3)C2)C1` (stereo not given), the “activity change, negative = inhibition” value was inactive: -11.4%.
Consider `O=C(O)Cn1nc(-c2ccncc2)nc1C1CCOC1` (stereo not given), for which the “activity change, negative = inhibition” value was inactive: -9.74% [at 64.5 µM].
Regarding `COC(=O)CNC(=O)C1CCc2nnc(CNC(=O)c3cccnc3)n21` (stereo not given), the “activity change, negative = inhibition” value was inactive: -6.06%.
Consider `CC(=O)N1CCn2cc(C(=O)N3CCOCC3)nc2C1`, for which the “activity change, negative = inhibition” value was inactive: -9.94%.
As for `COc1ccc(N2CC3CCC(C2)N3C(=O)NC(C)C)cc1`, the “activity change, negative = inhibition” value was inactive: -10%.
Still for that read-out and setting: under `CN1CC(=O)N(C2CCCNCC2)Cc2c(NCc3cccs3)ncnc21` (stereo not given) stands inactive: -21.3%.
Regarding `CNc1oc(-c2ccc3cnccc3c2)nc1C#N`, the “activity change, negative = inhibition” value is inactive: 6.11% [at 64.5 µM].
Consider `CNCc1ccccc1C(F)(F)F`, for which the “activity change, negative = inhibition” value is inactive: -15% [at 233 µM].
For the molecule `O=C(NCc1ccco1)[C@@H]1Cc2nc[nH]c2CN1Cc1cccnc1`, the “activity change, negative = inhibition” value is inactive: 10.4%.
Consider `Cc1cc(C)c(CN2CCC3(Cc4ccccc4CNC3=O)C2)c(C)c1` (stereo not given), for which the Potency was active: 879 nM.
For `CN1CCC(NC[C@H]2O[C@@H](CO)[C@@H](O)[C@@H]2N(C)Cc2ccccc2)CC1`, the “activity change, negative = inhibition” value was inactive: 28.6% [at 64.5 µM].
On the same count and under the same terms, under `Cc1cc(C)c(S(=O)(=O)c2nnn3c2nc(NCCCOC(C)C)c2ccccc23)c(C)c1` stands inactive: -13.7%.
Turning to `N#Cc1ccc(CN2CCC3(CN[S+](=O)([O-])c4cnccc4O3)C2)cc1` (stereo not given), the “activity change, negative = inhibition” value is inactive: -2.99%.
On to `CC(=O)NC1(C)CCN(Cc2cnc(-c3ccccc3OCc3ccccc3)s2)CC1`, for which the Potency is active: 4470 nM.
As to `CN1CC(=O)N(C2CCCNC2)Cc2c(NC3CCCCC3O)ncnc21` (stereo not given), the “activity change, negative = inhibition” value is inactive: -20.5%.
In the case of `CC(C)C[C@H](NC(=O)[C@@H]1C[C@H](NC(=O)c2cccn2C)CN1C(=O)c1cccn1C)C(N)=O`, the “activity change, negative = inhibition” value was inactive: -7.58% [at 64.5 µM].
For the molecule `O=C(O)c1cccc(-c2ccsc2)c1`, the “activity change, negative = inhibition” value is inactive: -9.95% [at 233 µM].
On to `CNc1oc(C2CCCC2)nc1C#N`, for which the “activity change, negative = inhibition” value was inactive: 18.7% [at 64.5 µM].
Still for that read-out and setting: under `COc1ccc(NC(=O)Nc2cccc(-c3ccc(N4CCOCC4)nn3)c2)cc1` stands inactive: -6.02% [at 64.5 µM].
For the molecule `CN1CCC(C(=O)N2Cc3ccccc3CC3(CCCN(CC4CCNC4)C3)C2)CC1` (stereo not given), the “activity change, negative = inhibition” value is inactive: -23%.
